In article PMC4336329 (PLoS ONE, 2015):
About 14,000 (4.5%) of roughly 310,000 compounds showed an effect of 50% or more. Effects have a minus sign here. The list shows a part of the results.

biological target: human ether-à-go-go-related gene (hERG) potassium channel (human, UniProt Q12809); assay: primary screen, population patch clamp on CHO cells stably expressing hERG
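Also: peak tail current of the secondary pulse compared with the same well before compound.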

Chain of human ether-à-go-go-related gene (hERG) potassium channel (Q12809 whole entry, looked up): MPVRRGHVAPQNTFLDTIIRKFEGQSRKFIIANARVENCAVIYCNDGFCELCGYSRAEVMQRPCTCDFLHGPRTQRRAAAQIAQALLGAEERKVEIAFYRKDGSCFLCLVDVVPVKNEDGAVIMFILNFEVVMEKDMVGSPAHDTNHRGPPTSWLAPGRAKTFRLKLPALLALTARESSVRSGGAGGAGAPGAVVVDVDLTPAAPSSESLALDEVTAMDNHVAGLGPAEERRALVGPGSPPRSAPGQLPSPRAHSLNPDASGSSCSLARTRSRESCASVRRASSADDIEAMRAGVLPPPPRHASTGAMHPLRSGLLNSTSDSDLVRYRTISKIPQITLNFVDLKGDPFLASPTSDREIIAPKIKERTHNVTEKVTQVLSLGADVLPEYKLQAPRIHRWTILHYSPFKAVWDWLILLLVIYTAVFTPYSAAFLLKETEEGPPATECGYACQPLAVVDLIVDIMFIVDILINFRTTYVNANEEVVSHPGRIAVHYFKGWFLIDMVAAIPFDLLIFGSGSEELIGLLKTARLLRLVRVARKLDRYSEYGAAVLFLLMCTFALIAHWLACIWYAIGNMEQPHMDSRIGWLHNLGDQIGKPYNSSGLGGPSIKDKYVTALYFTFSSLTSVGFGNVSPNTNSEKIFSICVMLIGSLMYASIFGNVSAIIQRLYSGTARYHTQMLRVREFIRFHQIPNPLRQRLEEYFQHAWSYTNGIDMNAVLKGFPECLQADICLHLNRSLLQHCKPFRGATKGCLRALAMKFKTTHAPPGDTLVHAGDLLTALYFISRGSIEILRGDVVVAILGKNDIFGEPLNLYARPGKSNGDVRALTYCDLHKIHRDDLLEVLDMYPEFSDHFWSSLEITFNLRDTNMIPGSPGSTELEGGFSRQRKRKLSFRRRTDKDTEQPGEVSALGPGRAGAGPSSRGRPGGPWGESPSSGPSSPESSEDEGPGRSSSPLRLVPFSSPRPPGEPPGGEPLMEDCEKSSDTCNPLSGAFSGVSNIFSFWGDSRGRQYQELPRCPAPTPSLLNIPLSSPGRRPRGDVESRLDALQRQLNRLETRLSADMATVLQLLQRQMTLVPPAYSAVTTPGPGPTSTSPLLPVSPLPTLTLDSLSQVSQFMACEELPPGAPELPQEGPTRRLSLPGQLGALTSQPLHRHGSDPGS

| SMILES | hERG current change (%, negative = inhibition) at 10uM [%] |
| --- | --- |
| Cc1ccc(NC(=O)C(=O)NCCN2CCN(C(=O)C(c3ccccc3)c3ccccc3)CC2)cc1 | -9.93 |
| CCC(C)NC(=O)C(=O)NCc1ccncc1 (centres unmarked) | 15.9 |
| COc1ccccc1NC(=S)N1CCc2cc(OC)c(OC)cc2C1 | -0.62 |
| Cc1cc(-n2c(C)cc(C(=O)CSc3ccc4c(c3)OCCO4)c2C)no1 | 1.7 |
| CCCCCn1c(SCC(=O)OCC)nc2cc(C(=O)N3CCC(C(N)=O)CC3)ccc2c1=O | -58.4 |
| Nc1nc(COC(=O)C2CC(=O)N(Cc3ccccc3Cl)C2)nc(Nc2ccccc2)n1 (centres unmarked) | -55.6 |
| CCCc1ccc2oc(C(=O)NCCCN3CCOCC3)c(C)c2c1 | -42.9 |
| Cc1ccc(C(=O)COc2cccc(NC(=O)c3ccco3)c2)cc1 | -4.71 |
| CCN(CC)S(=O)(=O)c1ccc2nc(NC(=O)c3ccco3)sc2c1 | -23.5 |
| COC(=O)c1ccc(C2C(C#N)=C(N)Oc3cc(C)n(C)c(=O)c32)cc1 (centres unmarked) | 9.41 |
| CCOC(=O)c1cc(-c2ccc(N3CCOCC3)cc2)nn1-c1ccc(F)cc1F | -40.2 |
| CC(=O)Nc1ccc(NC(=O)CN(c2cccc([N+](=O)[O-])c2)S(C)(=O)=O)cc1 | 15.6 |
| COc1ccc(N(CC(=O)NCc2ccc(C)cc2)S(=O)(=O)c2ccccc2[N+](=O)[O-])c(OC)c1 | 8.6 |
| CCCCn1c(-c2csc(C(C)C)c2)n[nH]c1=S | 20.9 |
| COC(=O)C1CCN(C(=O)Cc2c(OC)ccc3cc(Br)ccc23)CC1 | -17.3 |
| CCn1c(/C=N/Nc2ccc(C(=O)O)cc2)nc2ccccc21 | 13.1 |
| Cc1ccc(-n2[nH]c(C)c(/C=N/NC(=O)c3ccc(O)cc3O)c2=O)cc1 | 28.3 |
| CCOC(=O)C1=C(C)Nc2nc(SCC(=O)OC)nn2C1c1cc(F)cc(F)c1 (centres unmarked) | -5.97 |
| Cc1ccc(-c2cc(C(=O)Nc3ccc(S(=O)(=O)Nc4ncccn4)cc3)c3ccccc3n2)cc1 | 4.88 |
| CCn1c(-c2ccc(-c3ccccc3)cc2)c[nH]c1=S | 7.16 |
| CCC(Oc1ccccc1OC)C(=O)Nc1ccc2c(c1)OCCO2 (centres unmarked) | -11.5 |
| Cc1ccc2occ(/C=C/C(=O)O)c(=O)c2c1 | -3.44 |

| SMILES | hERG current change (%, negative = inhibition) at 10uM [%] |
| --- | --- |
| CC(C)(C)NC(=O)C(OC(=O)Cn1nnc(-c2ccc(F)cc2)n1)c1ccncc1 (centres unmarked) | 29.9 |
| Cc1ccc(SCc2ccc(C(=O)NCc3cccnc3)cc2)cc1 | 3.85 |
| CCc1ccccc1NC(=O)COC(=O)c1cccs1 | 15.7 |
| Cc1cccc(OCC(=O)N2CCN(C(=O)c3cccs3)CC2)c1 | -7.23 |
| O=C(O)c1ccccc1-c1ccc(C=C2C(=O)N(c3ccccc3)C(=S)N(c3ccccc3)C2=O)o1 | 9.37 |
| CC(=O)c1cccc(NC(=O)c2ccc3c(c2)OCO3)c1 | 14.4 |
| O=C(COC(=O)c1n[nH]c2ccccc12)Nc1ccc([N+](=O)[O-])cc1 | 5.33 |
| COC(=O)CCCC1=CC2=C(c3ccccc3)C(=O)C(C)(OC(=O)C3CCCC3)C(=O)C2=CN1CCc1ccccn1 (centres unmarked) | -3.78 |
| O=c1c2ccccc2oc2ncccc12 | -5.57 |
| CS(=O)(=O)N1CCN(C2Cc3ccccc3C2)CC1.O=C(O)C(=O)O | -14.1 |
| CCCSc1nc(C)c(CC(=O)OCC)c(=O)[nH]1 | -9.61 |
| O=[N+]([O-])c1ccc(Oc2ccc(OCc3ccccc3)cc2)nc1 | 6.84 |
| Cc1nc(-c2ccccc2)sc1C(=O)CSc1ccc(Cl)cc1 | 8.43 |
| O=C(CCCN1C(=O)/C(=C\c2cccs2)SC1=S)Nc1cccc(C(=O)O)c1 | 9.57 |
| CCCn1c(N)cc(=O)n(C)c1=O | 10.7 |
| CN1CCN(c2nc3c(c(=O)[nH]c(=O)n3C)n2Cc2cccc3ccccc23)CC1 | -27.6 |
| C/C(N)=C(\C#N)C(=O)NCCc1ccccn1 | 20.5 |
| N#CCC1c2ccccc2CCN1C(=O)Nc1ccc(C(F)(F)F)cc1 (centres unmarked) | -30.4 |
| CN(Cc1nc(CCc2ccccc2)no1)Cc1cccs1 | -21.6 |
| CC1=CC=CC2=NC(=O)CC(C)(C(=O)O)N12 (centres unmarked) | 11.3 |
| Cc1ccccc1OCCCCN1CCCCC1 | 12.6 |
| COc1ccc2[nH]c(=O)c(CN(C(=O)c3cccnc3)c3ccc(C)cc3C)cc2c1 | 2.21 |
